Assay results published in PubChem BioAssay (NCATS).
Inconclusive results are not listed. Calls come from the whole dose curve; as a rule, active = well fitted curve in the direction sought with a large enough effect; inconclusive = small, poorly fitted or top-dose-only effect, or another doubt; inactive = no such curve, though single readings can be large; an effect the other way counts as inactive or inconclusive. Some compounds were tested as several samples or in several runs, with calls that do not always agree. For part of its entries the source gives two or more results. Only these are listed. There may be further records. The records of an entry repeat one measurement in other runs, samples, wells, individuals or studies. A tag in brackets gives the origin of a value. A, B and so on number the origins entry by entry.

Tests used:
[1] = qHTS assay to identify small molecule inhibitors of chordoma cells - UCH-1 (AID 1259355); details: UCH-1 chordoma viability, CellTiter-Glo, 48 h, combination, with auranofin plus four topoisomerase inhibitors; series mostly up to 46.1 µM; note: nearly all actives have a fitted effect of over 55% in size
Outline: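 Luminescent ATP read-out (CellTiter-Glo, 30min at room temperature) measured viability of UCH-1 cells exposed for 48hr to test drugs at 15 concentrations, co-dosed with a five-agent combination of auranofin, camptothecin, doxorubicin, rubitecan and topotecan.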

[2] = qHTS of pediatric cancer cell lines to identify multiple opportunities for drug repurposing: Primary screen for NB-EBc1 cells (AID 1347095); details: NB-EBc1 neuroblastoma viability, CellTiter-Glo luminescence, 48 h; series mostly up to 46 µM
[3] = qHTS of pediatric cancer cell lines to identify multiple opportunities for drug repurposing: Primary screen for NB1643 cells (AID 1347099); details: NB1643 neuroblastoma viability, CellTiter-Glo luminescence, 48 h; series mostly up to 46 µM; note: nearly all actives have a fitted effect of over 50% in size
[4] = Vero cells viability qHTS for Zika virus inhibitors (AID 1347167); details: cytotoxicity counter-screen (Zika); series mostly up to 26.9 µM
From the text: Avindra Nath, Ph.D., National Institute of Neurological Disorders and Stroke (NINDS), Bethesda, MD
Radhakrishnan Padmanabhan, Ph.D., Georgetown University (GU), Washington D.C.
Zika Virus causes congenital defects, including microcephaly and is associated with Guillain-Barre syndrome, eningoencephalitis and myelitis in infected adult. […] Using a target-based approach, we hope to establish a screening paradigm to uncover novel, cell-active NS2B-NS3 protease (Zika Virus) specific inhibitors from NCATS' collection of small molecules using qHTS.
Four assay panel was created to identify potential Zika Virus inhibitors. Namely, (1) GU unlinked NS2B-NS3 AMC tagged protease qHTS, (2) GU unlinked NS2B-NS3 Rhodamine tagged protease qHTS, (3) NINDS linked NS2B-NS3 AMC tagged protease qHTS, (4) NINDS linked NS2B-NS3 Rhodamine tagged protease qHTS. Identified inhibitors were screened against the Vero and HepG2 cell viability assays using CellTiter Glo to exclude cytotoxic compounds.
Early Translation Branch (ETB) […]
Vero and HepG2 cell cytotoxicity were determined using a luminescent readout with CellTiter Glo reagent (Promega, Madison, WI), which is based on measuring the ATP content within cells. […] Finally, plates were incubated for 30 minutes at 37 degrees C and 5% CO2 before being read on a ViewLux (Perkin Elmer) for luminescence.
Potency is the fitted concentration of half-maximal effect.

SMILES: CC(C)(C)c1ccc(C(O)CCCN2CCC(C(O)(c3ccccc3)c3ccccc3)CC2)cc1 (centres undefined)
- Potency [1]: active: 25.1 µM [sample A] and inactive [sample B]

SMILES: COc1cc2ncnc(Nc3ccc(F)c(Cl)c3)c2cc1OCCCN1CCOCC1
- Potency [2]: active: 1.36 µM [sample A] and inactive [sample B]

SMILES: CC(C)OC(=O)C(C)(C)Oc1ccc(C(=O)c2ccc(Cl)cc2)cc1
- Potency [3]: inactive [sample A] and active: 23.5 µM [sample B]

SMILES: CC1(C)CCC(CN2CCN(c3ccc(C(=O)NS(=O)(=O)c4ccc(NCC5CCOCC5)c([N+](=O)[O-])c4)c(Oc4cnc5[nH]ccc5c4)c3)CC2)=C(c2ccc(Cl)cc2)C1
- Potency [4]: active: 18.5 µM [sample A] and inactive [sample B]
